# Measurements as given in the supplement of paper PMC8728848.
# Some of the results follow.
# B1: Gal 7 (Homo sapiens) (protein)
# chain: MSNVPHKSSLPEGIRPGTVLRIRGLVPPNASRFHVNLLCGEEGGSDAALHFNPRLDTSEVVFNSKEGGSWGREESGPGVPFGRGQPFEVLIIASDDGFKAVVGDAQYHHFRHRLPLARVRLVEVGGDVQLDSVRIF
# Assays:
# Assay in all cases: glycan array binding signal (z-score within array); higher = stronger binding
# Settings in all cases: glycan notation: IUPAC condensed, linker removed; mutation: R74S
# [1] = molecular target: GlcNAc(b1-3)Gal(b1-3)GalNAc
# Outline: (§1)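 Glycan array data were curated from 3228 arrays in the Consortium for Functional Glycomics database and kept only where the protein sequence was available. Glycan names were converted to IUPAC-condensed notation, and columns mapping to the same glycan were averaged. The binding signal is a within-array Z-score, averaged across arrays of the same protein sequence at different concentrations or buffers and across linkers. Negative Z-scores can be read as non-binding.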
# GlcNAc(b1-3)Gal(b1-4)Glc = molecular target: GlcNAc(b1-3)Gal(b1-4)Glc
# Outline: as §1
# [2] = molecular target: GlcNAc(b1-3)Gal(b1-4)GlcNAc
# Outline: as §1
# [3] = molecular target: GlcNAc(b1-3)Gal(b1-4)GlcNAc(b1-2)Man(a1-3)[GlcNAc(b1-3)Gal(b1-4)GlcNAc(b1-2)Man(a1-6)]Man(b1-4)GlcNAc(b1-4)GlcNAc
# Outline: as §1
# [4] = molecular target: GlcNAc(b1-3)Gal(b1-4)GlcNAc(b1-2)Man(a1-3)[GlcNAc(b1-3)Gal(b1-4)GlcNAc(b1-2)Man(a1-6)]Man(b1-4)GlcNAc(b1-4)[Fuc(a1-6)]GlcNAc
# Outline: as §1
# [5] = molecular target: GlcNAc(b1-3)Gal(b1-4)GlcNAc(b1-2)[GlcNAc(b1-3)Gal(b1-4)GlcNAc(b1-6)]Man(a1-6)[GlcNAc(b1-3)Gal(b1-4)GlcNAc(b1-2)Man(a1-3)]Man(b1-4)GlcNAc(b1-4)GlcNAc
# Outline: as §1
# [6] = molecular target: GlcNAc(b1-3)Gal(b1-4)GlcNAc(b1-3)Gal(b1-4)GlcNAc
# Outline: as §1
# [7] = molecular target: GlcNAc(b1-3)Gal(b1-4)GlcNAc(b1-3)Gal(b1-4)GlcNAc(b1-2)Man(a1-3)[GlcNAc(b1-3)Gal(b1-4)GlcNAc(b1-3)Gal(b1-4)GlcNAc(b1-2)Man(a1-6)]Man(b1-4)GlcNAc(b1-4)GlcNAc
# Outline: as §1
# [8] = molecular target: GlcNAc(b1-3)Gal(b1-4)GlcNAc(b1-3)Gal(b1-4)GlcNAc(b1-2)Man(a1-3)[GlcNAc(b1-3)Gal(b1-4)GlcNAc(b1-3)Gal(b1-4)GlcNAc(b1-2)Man(a1-6)]Man(b1-4)GlcNAc(b1-4)[Fuc(a1-6)]GlcNAc
# Outline: as §1
# [9] = molecular target: GlcNAc(b1-3)Gal(b1-4)GlcNAc(b1-3)Gal(b1-4)GlcNAc(b1-2)[GlcNAc(b1-3)Gal(b1-4)GlcNAc(b1-3)Gal(b1-4)GlcNAc(b1-6)]Man(a1-6)[GlcNAc(b1-3)Gal(b1-4)GlcNAc(b1-3)Gal(b1-4)GlcNAc(b1-2)Man(a1-3)]Man(b1-4)GlcNAc(b1-4)[Fuc(a1-6)]GlcNAc
# Outline: as §1
# [10] = molecular target: GlcNAc(b1-3)Gal(b1-4)GlcNAc(b1-3)Gal(b1-4)GlcNAc(b1-3)Gal(b1-4)GlcNAc(b1-2)Man(a1-3)[GlcNAc(b1-3)Gal(b1-4)GlcNAc(b1-3)Gal(b1-4)GlcNAc(b1-3)Gal(b1-4)GlcNAc(b1-2)Man(a1-6)]Man(b1-4)GlcNAc(b1-4)GlcNAc
# Outline: as §1
# [11] = molecular target: GlcNAc(b1-3)Gal(b1-4)GlcNAc(b1-3)Gal(b1-4)GlcNAc(b1-3)Gal(b1-4)GlcNAc(b1-2)Man(a1-3)[GlcNAc(b1-3)Gal(b1-4)GlcNAc(b1-3)Gal(b1-4)GlcNAc(b1-3)Gal(b1-4)GlcNAc(b1-2)Man(a1-6)]Man(b1-4)GlcNAc(b1-4)[Fuc(a1-6)]GlcNAc
# Outline: as §1
# [12] = molecular target: GlcNAc(b1-3)Gal(b1-4)GlcNAc(b1-3)Gal(b1-4)GlcNAc(b1-3)Gal(b1-4)GlcNAc(b1-2)[GlcNAc(b1-3)Gal(b1-4)GlcNAc(b1-3)Gal(b1-4)GlcNAc(b1-3)Gal(b1-4)GlcNAc(b1-6)]Man(a1-6)[GlcNAc(b1-3)Gal(b1-4)GlcNAc(b1-3)Gal(b1-4)GlcNAc(b1-3)Gal(b1-4)GlcNAc(b1-2)Man(a1-3)]Man(b1-4)GlcNAc(b1-4)[Fuc(a1-6)]GlcNAc
# Outline: as §1
# [13] = molecular target: GlcNAc(b1-3)Gal(b1-4)GlcNAc(b1-3)Gal(b1-4)GlcNAc(b1-3)Gal(b1-4)GlcNAc(b1-3)Gal(b1-4)GlcNAc(b1-2)Man(a1-3)[GlcNAc(b1-3)Gal(b1-4)GlcNAc(b1-3)Gal(b1-4)GlcNAc(b1-3)Gal(b1-4)GlcNAc(b1-3)Gal(b1-4)GlcNAc(b1-2)Man(a1-6)]Man(b1-4)GlcNAc(b1-4)GlcNAc
# Outline: as §1
# [14] = molecular target: GlcNAc(b1-3)Gal(b1-4)GlcNAc(b1-3)Gal(b1-4)GlcNAc(b1-3)Gal(b1-4)GlcNAc(b1-3)Gal(b1-4)GlcNAc(b1-2)Man(a1-3)[GlcNAc(b1-3)Gal(b1-4)GlcNAc(b1-3)Gal(b1-4)GlcNAc(b1-3)Gal(b1-4)GlcNAc(b1-3)Gal(b1-4)GlcNAc(b1-2)Man(a1-6)]Man(b1-4)GlcNAc(b1-4)[Fuc(a1-6)]GlcNAc
# Outline: as §1
# [15] = molecular target: GlcNAc(b1-3)Gal(b1-4)GlcNAc(b1-3)Gal(b1-4)GlcNAc(b1-3)Gal(b1-4)GlcNAc(b1-3)Gal(b1-4)GlcNAc(b1-2)[GlcNAc(b1-3)Gal(b1-4)GlcNAc(b1-3)Gal(b1-4)GlcNAc(b1-3)Gal(b1-4)GlcNAc(b1-3)Gal(b1-4)GlcNAc(b1-6)]Man(a1-6)[GlcNAc(b1-3)Gal(b1-4)GlcNAc(b1-3)Gal(b1-4)GlcNAc(b1-3)Gal(b1-4)GlcNAc(b1-3)Gal(b1-4)GlcNAc(b1-2)Man(a1-3)]Man(b1-4)GlcNAc(b1-4)[Fuc(a1-6)]GlcNAc
# Outline: as §1
# [16] = molecular target: GlcNAc(b1-3)Gal(b1-4)GlcNAc(b1-3)Gal(b1-4)GlcNAc(b1-3)GalNAc
# Outline: as §1
# [17] = molecular target: GlcNAc(b1-3)Gal(b1-4)GlcNAc(b1-3)GalNAc
# Outline: as §1
# [18] = molecular target: GlcNAc(b1-3)Gal(b1-4)GlcNAc(b1-3)[GlcNAc(b1-3)Gal(b1-4)GlcNAc(b1-3)]GalNAc
# Outline: as §1
# [19] = molecular target: GlcNAc(b1-3)Gal(b1-4)GlcNAc(b1-6)[Gal(b1-3)]GalNAc
# Outline: as §1
# [20] = molecular target: GlcNAc(b1-3)Gal(b1-4)GlcNAc(b1-6)[GlcNAc(b1-3)Gal(b1-3)]GalNAc
# Outline: as §1
# [21] = molecular target: GlcNAc(b1-3)Gal(b1-4)GlcNAc(b1-6)[GlcNAc(b1-3)]Gal(b1-4)GlcNAc
# Outline: as §1
# GlcNAc(b1-3)GalNAc = molecular target: GlcNAc(b1-3)GalNAc
# Outline: as §1
# GlcNAc(b1-3)Man = molecular target: GlcNAc(b1-3)Man
# Outline: as §1
# [22] = molecular target: GlcNAc(b1-3)[GlcNAc(b1-4)][GlcNAc(b1-6)]GlcNAc
# Outline: as §1
# [23] = molecular target: GlcNAc(b1-3)[GlcNAc(b1-6)]Gal(b1-4)GlcNAc
# Outline: as §1
# [24] = molecular target: GlcNAc(b1-3)[GlcNAc(b1-6)]GalNAc
# Outline: as §1
# [25] = molecular target: GlcNAc(b1-4)Gal(b1-4)GlcNAc
# Outline: as §1
# GlcNAc(b1-4)GlcNAc = molecular target: GlcNAc(b1-4)GlcNAc
# Outline: as §1
# [26] = molecular target: GlcNAc(b1-4)GlcNAc(b1-4)GlcNAc
# Outline: as §1
# [27] = molecular target: GlcNAc(b1-4)GlcNAc(b1-4)GlcNAc(b1-4)GlcNAc(b1-4)GlcNAc
# Outline: as §1
# [28] = molecular target: GlcNAc(b1-4)GlcNAc(b1-4)GlcNAc(b1-4)GlcNAc(b1-4)GlcNAc(b1-4)GlcNAc
# Outline: as §1
# [29] = molecular target: GlcNAc(b1-4)[GlcNAc(b1-6)]GalNAc
# Outline: as §1
# [30] = molecular target: GlcNAc(b1-6)Gal(b1-4)GlcNAc
# Outline: as §1
# GlcNAc(b1-6)GalNAc = molecular target: GlcNAc(b1-6)GalNAc
# Outline: as §1
# [31] = molecular target: GlcNAc6S(b1-3)Gal(b1-4)GlcNAc
# Outline: as §1
# Kdn(a2-3)Gal(b1-3)GalNAc = molecular target: Kdn(a2-3)Gal(b1-3)GalNAc
# Outline: as §1
# Kdn(a2-3)Gal(b1-3)GlcNAc = molecular target: Kdn(a2-3)Gal(b1-3)GlcNAc
# Outline: as §1
# Kdn(a2-3)Gal(b1-4)Glc = molecular target: Kdn(a2-3)Gal(b1-4)Glc
# Outline: as §1
# Kdn(a2-3)Gal(b1-4)GlcNAc = molecular target: Kdn(a2-3)Gal(b1-4)GlcNAc
# Outline: as §1
# [32] = molecular target: Kdn(a2-3)Gal(b1-4)[Fuc(a1-3)]GlcNAc
# Outline: as §1
# Kdn(a2-6)Gal(b1-4)GlcNAc = molecular target: Kdn(a2-6)Gal(b1-4)GlcNAc
# Outline: as §1
# [33] = molecular target: Man(a1-2)Man(a1-2)Man(a1-3)Man
# Outline: as §1
# [34] = molecular target: Man(a1-2)Man(a1-2)Man(a1-6)[Man(a1-3)]Man
# Outline: as §1
# Man(a1-2)Man(a1-3)Man = molecular target: Man(a1-2)Man(a1-3)Man
# Outline: as §1
binder,measurement,setting,value
B1,glycan array binding signal (z-score),[1],-0.21
same,glycan array binding signal (z-score),GlcNAc(b1-3)Gal(b1-4)Glc,-0.494
same,glycan array binding signal (z-score),[2],-0.635
same,glycan array binding signal (z-score),[3],0.44
same,glycan array binding signal (z-score),[4],1.15
same,glycan array binding signal (z-score),[5],-0.075
same,glycan array binding signal (z-score),[6],-0.579
same,glycan array binding signal (z-score),[7],1.29
same,glycan array binding signal (z-score),[8],1.85
same,glycan array binding signal (z-score),[9],1.67
same,glycan array binding signal (z-score),[10],0.875
same,glycan array binding signal (z-score),[11],4.14
same,glycan array binding signal (z-score),[12],1.9
same,glycan array binding signal (z-score),[13],2.63
same,glycan array binding signal (z-score),[14],2.87
same,glycan array binding signal (z-score),[15],1.16
same,glycan array binding signal (z-score),[16],-0.456
same,glycan array binding signal (z-score),[17],-0.547
same,glycan array binding signal (z-score),[18],-0.2
same,glycan array binding signal (z-score),[19],-0.173
same,glycan array binding signal (z-score),[20],-0.377
same,glycan array binding signal (z-score),[21],-0.652
same,glycan array binding signal (z-score),GlcNAc(b1-3)GalNAc,-0.436
same,glycan array binding signal (z-score),GlcNAc(b1-3)Man,-0.595
same,glycan array binding signal (z-score),[22],-0.573
same,glycan array binding signal (z-score),[23],-0.632
same,glycan array binding signal (z-score),[24],-0.503
same,glycan array binding signal (z-score),[25],-0.365
same,glycan array binding signal (z-score),GlcNAc(b1-4)GlcNAc,-0.382
same,glycan array binding signal (z-score),[26],-0.549
same,glycan array binding signal (z-score),[27],-0.329
same,glycan array binding signal (z-score),[28],-0.548
same,glycan array binding signal (z-score),[29],-0.742
same,glycan array binding signal (z-score),[30],-0.595
same,glycan array binding signal (z-score),GlcNAc(b1-6)GalNAc,-0.571
same,glycan array binding signal (z-score),[31],-0.296
same,glycan array binding signal (z-score),Kdn(a2-3)Gal(b1-3)GalNAc,-0.42
same,glycan array binding signal (z-score),Kdn(a2-3)Gal(b1-3)GlcNAc,-0.611
same,glycan array binding signal (z-score),Kdn(a2-3)Gal(b1-4)Glc,-0.078
same,glycan array binding signal (z-score),Kdn(a2-3)Gal(b1-4)GlcNAc,-0.408
same,glycan array binding signal (z-score),[32],-0.427
same,glycan array binding signal (z-score),Kdn(a2-6)Gal(b1-4)GlcNAc,-0.539
same,glycan array binding signal (z-score),[33],-0.266
same,glycan array binding signal (z-score),[34],-0.342
same,glycan array binding signal (z-score),Man(a1-2)Man(a1-3)Man,-0.339
